# Measured values from PubChem BioAssay AID902 (National Center for Advancing Translational Sciences (NCATS), 2007).
# Values joined by “and” are separate entries in the source; they are usually repeats but may differ in a detail not shown here. Equal entries are not always repeated. Screen size: about 130,000 compounds; about 1,900 (1.5%) were called active. Inconclusive means that the source gave no clear call. Such entries were picked first, then a sample of the others. Calls come from the whole dose curve; as a rule, active = well fitted cell-killing curve with a large enough effect; inconclusive = small, poorly fitted or top-dose-only effect; inactive = no such curve, though single readings can be large or run the other way. Where the call is inconclusive, the potency comes from a doubtful curve fit.
# Experiment: qHTS Screen for Compounds that Selectively Target Cancer Cells with p53 Mutations: Cytotoxicity of p53ts Cells at the Nonpermissive Temperature; note: nearly all actives have a fitted effect of over 55% in size
# Conditions: H1299-p53A138V viability at 39C, ATP luminescence, 24 h; activity change, negative = cell killing: at 46.1 µM (top of the series)
# % is set by controls: 0 for no effect and ±100 for the full control effect; potency is the fitted concentration of half-maximal effect; tags give direction and shape of the fitted curve.
Compound,Potency,"activity change, negative = cell killing"
O=C(/C=C/c1ccc2c(c1)OCO2)c1cccs1,active: 20 µM,–
O=C1c2ccccc2CC[C@H]1CNCCc1ccc(O)cc1,"inconclusive: 31.6 µM [cytotoxic, single point]",–
COc1ccc(OC2C(O)COC2/C=C/c2ccccc2)cc1 (stereo unspecified),–,inactive: -4.38% [at 9.22 µM] and inactive: 0.584% [at 9.22 µM]
Cc1ccc(C(Nc2ccccn2)c2ccc3cccnc3c2O)cc1 (stereo unspecified),"inconclusive: 3.16 µM [cytotoxic, full curve]",–
OCCN1CCN(c2nc(-c3ccccc3)c3cc(Cl)ccc3n2)CC1,"inconclusive: 31.6 µM [cytotoxic, single point]",–
CC(=O)Nc1ccc(NC(=O)CCCc2nc(-c3ccc(C(C)(C)C)cc3)no2)cc1,"inconclusive: 31.6 µM [cytotoxic, single point]",–
COc1ccc(S(=O)(=O)Nc2cccc(-c3ccc(N4CCOCC4)nn3)c2)cc1F,"inconclusive: 6.31 µM [cytotoxic, full curve, poor fit]",–
O=C(Cn1nc(-c2ccccc2)ccc1=O)NCc1ccc(F)cc1Cl,"inconclusive: 10 µM [cytotoxic, partial curve, poor fit]",–
CC(C)(C)OC(=O)N1CCC(c2c(C(=O)NC3CCN(Cc4ccccc4)CC3)cnn2-c2cccc(F)c2)CC1,"inconclusive: 12.6 µM [cytotoxic, partial curve]",–
COc1cc(C2C(=O)N(C3CCCCC3)CC(=O)N2C2CCCC2)ccc1OC(C)C (stereo unspecified),"inconclusive: 0.005 µM [cytotoxic, full curve, poor fit]",–
CCCCNC(=O)CCC(=O)NNc1nc2ccccc2c2nc(-c3ccccc3)nn12,active: 12.6 µM,–
Cc1ccc(O)c(/C=N/NC(=O)C2=NNC(c3ccccc3)(c3ccccc3)C2)c1,"inconclusive: 11.2 µM [cytotoxic, partial curve]",–
CCCS(=O)(=O)c1ncc(Cl)c(C(=O)N2CCN(c3ccc(OC)cc3)CC2)n1,active: 12.6 µM,–
CCC(=O)N1CCc2cc(Br)cc(S(=O)(=O)N3CCN(c4ccc(C(C)=O)cc4)CC3)c21,"inconclusive: 0.316 µM [cytotoxic, partial curve]",–
COc1ccc(-c2cc(C(=O)Oc3cccc(C)c3)c3ccccc3n2)cc1,"inconclusive: 3.98 µM [cytotoxic, partial curve]",–
Cc1ccc(NC(=O)CSCc2cnn(-c3ccccc3)c2-n2cccc2)c(C)c1,"inconclusive: 0.316 µM [cytotoxic, full curve, poor fit]",–
Cc1ccc(NC(=O)CSc2nc3ccccc3c3nc(CCn4cncc4C)nn23)cc1F,"inconclusive: 10 µM [cytotoxic, partial curve, poor fit]",–
O=S(=O)(Nc1cccc(Cl)c1)c1ccc2[nH]c3c(c2c1)CCCCCC3,"inconclusive: 31.6 µM [cytotoxic, single point]",–
O=C(NCCCn1ccnc1)Nc1cccc2ccccc12,inactive,–
O=C(Cn1nc2c(cc1=O)CCCC2)Nc1ccc(F)cc1F,"inconclusive: 0.316 µM [cytotoxic, full curve]",–
c1ccc(-c2noc(-c3cccs3)n2)nc1,active: 15.8 µM,–
CCOc1ccc2c(c1)sc(=NC(=O)C1CC1)n2C,"inconclusive: 10 µM [cytotoxic, partial curve]",–

Compound,Potency,"activity change, negative = cell killing"
COc1ccc(N2CCN(C(=O)COc3ccc4ccccc4c3)CC2)cc1,inactive,–
Cc1ccc2nc(/C(C#N)=C/c3cccc(Br)c3)[nH]c2c1,inactive,–
Cc1nc2sccn2c1-c1nc(-c2cc3ccccc3o2)cs1,"inconclusive: 15.8 µM [cytotoxic, single point]",–
CCOc1ccc(NC(=O)c2sc3nc4c(cc3c2N)CCCCCC4)cc1,active: 12.6 µM,–
O=C1Cc2c([nH]c3ccc(Br)cc23)-c2ccccc2N1,"inconclusive: 7.94 µM [cytotoxic, full curve, poor fit]",–
COc1cccc(NC(=O)c2ccn(C)n2)c1,"inconclusive: 12.6 µM [cytotoxic, partial curve]",–
COCCNC(=O)CSc1c2c(nc3cc(Cl)ccc13)CCCC2,"inconclusive: 20 µM [cytotoxic, single point]",–
Oc1ccc(-c2nc3ccccn3c2Nc2ccc3c(c2)OCCO3)cc1,"inconclusive: 15.8 µM [cytotoxic, single point]",–
CCCCNS(=O)(=O)c1ccc2nc(-c3cccnc3)cc(C(=O)NCCC)c2c1,inactive,–
CCCCC(CC)CNC(=O)CCCc1nnc2n(CCC)c(=O)c3sccc3n12 (stereo unspecified),inactive,–
Cc1c(CC(=O)NCc2ccccc2)c(=O)oc2c(C)c(O)ccc12,"inconclusive: 31.6 µM [cytotoxic, single point]",–
Cc1cc2c(nc1C)CCCCN2C[C@H](C)O/N=C1/[C@H]2O[C@@H]2[C@@H](O)[C@H]2[C@H]1CCn1c(=O)n(-c3ccccc3)c(=O)n12,"inconclusive: 5.01 µM [cytotoxic, single point]",–
COc1ccc(C)cc1NC(=O)c1ccc2c(c1)OCO2,"inconclusive: 15.8 µM [cytotoxic, single point]",–
COc1cc(Cl)c(C)cc1NC(=O)CC1Oc2ccccc2NC1=O (stereo unspecified),"inconclusive: 12.6 µM [cytotoxic, single point]",–
O=c1c(-c2ccc(Cl)cc2)nc2cnc(N3CCNCC3)nc2n1Cc1ccc(F)cc1,"inconclusive: 31.6 µM [cytotoxic, single point]",–
COc1ccc(-n2c(/C=C/c3cccc4ccccc34)nc3ccccc3c2=O)cc1OC,–,inconclusive: -30.1% [cytotoxic]
Cc1cc(C(=O)Nc2cccc(O)c2)c(C)o1,inactive,–
c1ccc2c[n+](CCCC[n+]3ccc4ccccc4c3)ccc2c1,–,inactive: 11.7% [at 9.22 µM]
Cc1ccc(NC(=O)c2ccc(NC(=O)N3CCSc4ncccc43)cc2)c(Cl)c1,"inconclusive: 12.6 µM [cytotoxic, partial curve]",–
Cc1ccc(Sc2ccc(N3CCC(C(=O)Nc4cc(C)cc(C)c4)CC3)nn2)cc1,active: 12.6 µM,–
O=C(Cn1cnc2c(nnn2-c2ccccc2)c1=O)NCc1ccco1,"inconclusive: 31.6 µM [cytotoxic, single point]",–
Cc1ccc(CNC(=O)CCS(=O)(=O)c2cc3c4c(c2)CCN4C(=O)CC3)cc1,inactive,–

Compound,Potency,"activity change, negative = cell killing"
CCc1ccc(NC(=O)CSc2nc3c([nH]c4ccccc43)c(=O)n2-c2ccc(C)cc2)cc1,"inconclusive: 10 µM [cytotoxic, partial curve]",–
O=C(Nc1ccc(Cl)cc1)c1cnn2c1NC(c1ccccc1)=CC2c1ccccc1 (stereo unspecified),"inconclusive: 31.6 µM [cytotoxic, single point]",–
C/C(N)=C(/C#N)C(=O)CSc1nnc(Nc2cccc(C)c2)s1,"inconclusive: 20 µM [cytotoxic, partial curve]",–
CC(Oc1ccccc1)C(=O)Nc1ccc(C(=O)OCc2cc(=O)n3nc(C(C)C)sc3n2)cc1 (stereo unspecified),"inconclusive: 1.58 µM [cytotoxic, full curve, poor fit]",–
CCOc1ccc(/C=C/c2nc(C#N)c(N3CCN(CC)CC3)o2)cc1,inactive,–
CS(=O)c1nc(-c2ccc(Br)cc2)cc(-c2ccccc2)c1C#N (stereo unspecified),"inconclusive: 15.8 µM [cytotoxic, single point]",–
O=C1CC(c2cccs2)Sc2nc3ccccc3n21 (stereo unspecified),inactive,–
COC(=O)C1=C(CS(=O)(=O)c2ccc(C)cc2C)NC(=O)NC1c1ccc(C)cc1 (stereo unspecified),"inconclusive: 31.6 µM [cytotoxic, single point]",–
OC(CNCC1CCCO1)Cn1c2ccc(Br)cc2c2cc(Br)ccc21 (stereo unspecified),"inconclusive: 31.6 µM [cytotoxic, single point]",–
COCC(=O)N1CCC2(CC1)CCN(c1ccc(-c3ccccc3)cc1)CC2,"inconclusive: 7.94 µM [cytotoxic, partial curve]",–
CCOc1ccccc1NC(=O)CSc1c2c(nc3ccc(Cl)cc13)CCCC2,"inconclusive: 20 µM [cytotoxic, single point]",–
CCOc1ccccc1NC(=O)c1nc(S(=O)(=O)Cc2cccc(C)c2)ncc1Cl,active: 3.16 µM,–
CC(C)C[C@H](N)c1nnc(SCc2ccc(Cl)cc2Cl)o1,"inconclusive: 0.1 µM [cytotoxic, full curve, poor fit]",–
CC1=C(c2ccc(C(C)C)cc2)S(=O)(=O)N=C1N1CCN(c2ccccc2F)CC1,"inconclusive: 20 µM [cytotoxic, single point]",–
O=C(Cc1cc(=O)[nH]c(=O)[nH]1)NCCN1CCOCC1,"inconclusive: 7.94 µM [cytotoxic, partial curve]",–
O=C(NCc1ccccc1)c1cc(Sc2cccc(Cl)c2)nc2ccccc12,"inconclusive: 3.16 µM [cytotoxic, full curve, poor fit]",–
Cc1cc(=O)[nH]c(S/C=C/c2ccccc2)n1,active: 5.01 µM,–
CC(C)Cn1nc(NC(=O)c2cccc(Cl)c2)c2cc3ccccc3nc21,active: 12.6 µM,–
CN1CCN(C(CNC(=O)C(=O)Nc2ccc(Cl)cc2)c2cccnc2)CC1 (stereo unspecified),"inconclusive: 14.1 µM [cytotoxic, partial curve]",–
CCOc1ccccc1NC(=O)Cn1c(=O)n(CC(=O)NCc2ccccc2Cl)c(=O)c2sccc21,"inconclusive: 31.6 µM [cytotoxic, single point]",–
CCOc1ccc(-n2c(SCc3ccccc3)nc3c([nH]c4ccccc43)c2=O)cc1,"inconclusive: 12.6 µM [cytotoxic, single point]",–
Cc1ccc(-c2nnn(CC(=O)Nc3ccc(S(=O)(=O)N4CCC(C)CC4)cc3)n2)cc1,"inconclusive: 15.8 µM [cytotoxic, single point]",–
